Assay results as given in PubChem BioAssay AID504374 (National Center for Advancing Translational Sciences (NCATS), 2011).
Where “and” joins values, the source holds several entries; their conditions need not be identical. Equal values may be shown once. In all, about 1,500 compounds went through this assay and about 100 (6.7%) were called active. About 7% were inconclusive and are not listed. Calls follow the shape of the dose curve; as a rule, active = well fitted inhibition curve with a large enough effect; inconclusive = small, poorly fitted or top-dose-only effect, or effect the other way; inactive = flat fitted curve, though single readings scatter. The list shows a part of the results. Peptide text beside a SMILES is read from it. * marks the point of attachment. OBn = c1ccc(CO*)cc1

Biological target: Runt-related transcription factor 1 (Homo sapiens) + Core-binding factor subunit beta (Homo sapiens) (UniProt Q01196+Q13951)
Assay: qHTS Assay for Compounds Blocking the Interaction Between CBF-beta and RUNX1 for the Treatment of Acute Myeloid Leukemia: Hit Validation; also: nearly all actives have a fitted effect of over 60% in size
Settings: AlphaScreen CBFb-His/RUNX1-biotin binding; series mostly up to 59.8 µM; activity, negative = inhibition: at the top concentration
In short: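 AlphaScreen proximity assay: His-tagged CBF-beta and biotinylated RUNX1 (30 nM each) preincubated 20 min, then compound 15 min, then nickel and streptavidin beads 90 min, all at room temperature; signal read at […]em 440 nm.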
% is scaled to controls: 0 for no effect and ±100 for the full control effect; potency is read from the fitted curve at half-maximal effect.

UniProt Q01196, sequence (Q01196 whole entry, looked up): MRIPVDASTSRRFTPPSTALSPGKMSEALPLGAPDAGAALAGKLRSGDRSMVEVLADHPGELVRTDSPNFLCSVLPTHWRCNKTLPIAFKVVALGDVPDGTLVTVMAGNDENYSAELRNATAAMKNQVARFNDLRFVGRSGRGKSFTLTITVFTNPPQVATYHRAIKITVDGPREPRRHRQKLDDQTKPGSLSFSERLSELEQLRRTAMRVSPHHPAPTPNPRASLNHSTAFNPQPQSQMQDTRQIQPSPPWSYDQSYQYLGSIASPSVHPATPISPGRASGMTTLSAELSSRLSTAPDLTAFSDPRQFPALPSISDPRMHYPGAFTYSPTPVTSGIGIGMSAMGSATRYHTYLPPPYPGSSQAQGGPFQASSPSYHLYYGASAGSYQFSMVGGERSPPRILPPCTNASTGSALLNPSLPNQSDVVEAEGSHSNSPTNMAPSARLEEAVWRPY
UniProt Q01196, sequence (Q13951 whole entry, looked up): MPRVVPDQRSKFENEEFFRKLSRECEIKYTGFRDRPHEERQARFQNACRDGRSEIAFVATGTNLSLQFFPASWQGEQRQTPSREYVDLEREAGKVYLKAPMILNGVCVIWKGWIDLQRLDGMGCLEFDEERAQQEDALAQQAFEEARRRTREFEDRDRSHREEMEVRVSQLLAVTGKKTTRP

Compound | activity, negative = inhibition | Potency
N#CCc1cnc2ccccc2n1 | inactive: -24.4% | –
Cc1ccc(CNc2nc(N)c([N+](=O)[O-])c(NCCO)n2)cc1 | inactive: -6.25% | –
CC(C)N1CN(c2ccccc2)C(=S)N(c2ccccc2)C1 | inactive: 5.92% | –
CCN(CC)c1ncc(C#N)c(N)n1 | inactive: -6.57% | –
CCN(CC)S(=O)(=O)c1cccc(C(=O)N/N=C2\CCCC(=O)C2)c1 | inactive: -2.55% | –
Clc1ccc(-c2ccccc2)nn1 | inactive: -1.75% | –
Cc1nn(C)c(C)c1NC(=O)/C(C#N)=C\N(C)C | inactive: -2.86% | –
CC(C)(C)c1ccc(CCC2OCC(CN3CCOCC3)O2)cc1 (stereo not given) | inactive: 1.96% | –
Cn1c(=O)c2cc3ccc(Cl)cc3nc2n(C)c1=O | inactive: 1.09% | –
O=c1c2cc(-c3ccccc3)sc2nc2n1N=C(c1ccccc1)CS2 | inactive: -6.28% | –
CCn1c(SCC(=O)Nc2c(C#N)cnn2-c2ccccc2)nnc1-c1cccs1 | inactive: -5.3% | –
Cc1ccc(C#CC(C)(O)C(C)(C)C)cn1 (stereo not given) | inactive: -2.64% | –
COc1ccc(CN2CCOC2=O)cc1OC | inactive: -4.99% | –
O=C(CN1CCCc2ccccc21)N1CCc2ccccc21 | inactive: 7.88% | –
Cc1cc(NC(=O)CN2CCOCC2)n(-c2ccccc2)n1 | inactive: -1.1% | –
CCSc1cc(Cl)nc(N)n1 | inactive: 1.54% | –
CC(C)(C)c1ccc(/C=N/N2CCN(c3ccccn3)CC2)cc1 | inactive: -4.52% | –
N/C(CN1CCSCC1)=N\OCc1c(F)cccc1Cl | inactive: -4.68% | –
CCC(C)(C)C1CCc2[nH]nc(C(=O)N/N=C(\C)c3ccco3)c2C1 (stereo not given) | inactive: -1.02% | –
O=C(NC1CCSC1)c1cccc(Cl)c1 (stereo not given) | inactive: -7.92% | –
Clc1nc(Oc2ccccc2)nc(-c2cn(-c3ccccc3)c3ccccc23)n1 | inactive: 9.1% | –
N#Cc1ccc(-c2cccnc2)nc1SCC(=O)c1ccccc1 | inactive: 3.15% | –
CC(C)CC(=O)NC(=S)Nc1ccccc1N1CCCC1 | inactive: -17.3% | –

Compound | activity, negative = inhibition | Potency
COc1ccc2nc3cc(Cl)ccc3c(C#N)c2c1 | inactive: -4.75% | –
Nc1nc(Nc2cccc(Cl)c2)n[nH]1 | inactive: 3% | –
Cc1ccc(OCC(=O)N(Cc2ccc(N(C)C)cc2)C2CCS(=O)(=O)C2)cc1C (stereo not given) | inactive: -15% | –
COCCNc1c2c(nc3c(-c4ccccc4)c(C)nn13)CCC2 | inactive: 0.807% | –
Cc1cc(C)nc(N2N=C(C(F)(F)F)CC2=O)n1 | inactive: 2.96% | –
Cc1ccccc1-c1noc(-c2ccccc2C(=O)NCC2CCCO2)n1 (stereo not given) | inactive: -6.51% | –
Cc1ccc(Cc2cc(C)n[nH]c2=O)cc1 | inactive: 5.27% | –
Cc1cc(N2CCN(C(=O)c3ccco3)CC2)c2ccccc2n1 | inactive: -5.64% | –
CCOC(=O)c1c(NC(=S)NC)sc2c1CCCC2 | inactive: -4.61% | –
Cc1n[nH]c(C)c1CCC(=O)N/N=C/c1cccs1 | inactive: -16.4% | –
COCc1cc(=O)n2[nH]c(-c3cccs3)cc2n1 | inactive: -6.05% | –
Cc1cccn(Cc2c(F)cccc2Cl)c1=O | inactive: 7% | –
COc1ccc(C(=O)CSc2nnc3n2CCCN3C(=O)Nc2ccccc2)cc1 | inactive: -0.884% | –
COc1ccc(NC(=O)CSc2ccc(-c3ccccn3)nn2)cc1OC | – | active: 4.47 µM
Cn1cc(NC(=O)Nc2ccc(C(F)(F)F)cc2)c(C(F)(F)F)n1 | inactive: 8.22% | –
CCCS(=O)(=O)c1c(S(=O)(=O)CCC)c2cnccn2c1C(=O)c1ccc(OC)cc1 | inactive: 7.99% | –
c1ccc(-c2ccc(-c3ccccn3)s2)nc1 | inactive: 3.74% | –
Cc1c(Cl)cccc1NC(=S)N(CCN(C)C)C(C)c1ccccn1 (stereo not given) | – | active: 4.34 µM
Nc1nc(-c2ccccc2)c(N=Nc2ccccc2Cl)s1 | – | active: 4.34 µM
CC(C)c1nc2oc3c(N(C)CCO)ncnc3c2c2c1CCC2 | inactive: -5.62% | –
COC(=O)c1scc(C)c1S(=O)(=O)Nc1ccc(C)cc1 | inactive: -10.9% | –
COc1ccc(CCNc2c3ccccc3nc3ccccc23)cc1OC | inactive: 6.32% | –
CSc1nc(SCC(=O)O)c2sc3nc(-c4ccccc4)c4c(c3c2n1)CCC4 | inactive: 9.29% | –

Compound | activity, negative = inhibition | Potency
CCN1CCN(Cc2cc(=O)oc3ccc(C)cc23)CC1 | inactive: -4.63% | –
N#C/C(=N\Nc1ccccc1)C(=N)N1CCCCCC1 | inactive: -7.48% | –
COC(=O)/C=C(\C)N=Nc1c(O)[nH]c2ccccc12 | inactive: -4.81% | –
CC(=O)CCn1cc([N+](=O)[O-])nc1C | inactive: 3.83% | –
CCOC(=O)C1=C(C)N(CC(C)C)C(=O)/C1=C\c1cccs1 | inactive: -7.54% | –
S=C1SCN(Cc2ccco2)CN1Cc1ccco1 | inactive: -6.67% | –
NC(=O)c1cccnc1Oc1ccc(Cl)cc1 | inactive: -13% | –
COc1ccc([N+](=O)[O-])c(S(=O)(=O)c2ccccc2)n1 | inactive: -1.27% | –
Cc1cnc(NS(=O)(=O)c2ccc(Cl)cc2)c(Br)c1 | inactive: -7.79% | –
C/C(=N\Nc1cccc(Cl)c1)C1(C)N(O)C(C)(C)C(c2ccco2)=[N+]1[O-] (stereo not given) | inactive: -5.45% | –
S=c1[nH]c2cc3ccccc3cc2[nH]1 | inactive: 10.7% | –
Cn1cc(Br)c(NC(=O)/C=C/C(=O)O)n1 | inactive: 7.54% | –
CC(C)(C)c1ccc(NC(=S)NCc2cccnc2)cc1 | inactive: -3.62% | –
O=C(CCCCl)NC(=S)Nc1ccc(N2CCOCC2)cc1 | inactive: 6.2% | –
C=CCSC(CC)(CC)C(N)=O | inactive: -0.298% | –
COc1cccc(C2/C(=C(/O)c3ccccc3)C(=O)C(=O)N2Cc2ccco2)c1 (stereo not given) | inactive: -6.74% | –
COC(=O)c1[nH]c2cc(OC)ccc2c1NC(=O)c1c(F)cccc1F | inactive: 3.22% | –
O=C(Oc1c(-c2ccccc2)c(=O)n2c3c(cccc13)CC2)c1ccco1 | inactive: -3.57% | –
O=C(OCC1OC(OC(=O)c2cc(O)c(O)c(OC(=O)c3cc(O)c(O)c(O)c3)c2)[C@@H](OC(=O)c2cc(O)c(O)c(OC(=O)c3cc(O)c(O)c(O)c3)c2)C(OC(=O)c2cc(O)c(O)c(OC(=O)c3cc(O)c(O)c(O)c3)c2)C1OC(=O)c1cc(O)c(O)c(OC(=O)c2cc(O)c(O)c(O)c2)c1)c1cc(O)c(O)c(OC(=O)c2cc(O)c(O)c(O)c2)c1 (stereo not given in full) | – | active: 0.398 µM
c1cnc2ccc3ncccc3c2c1 | inactive: -19.2% | –
O=C(OCC(O)COC(=O)c1cccnc1)c1cccnc1 | inactive: 0.481% | –
COc1ccc(Nc2cc(C)nc(NCc3ccccc3)n2)cc1 | inactive: -19.2% | –
O=C(Nc1ccccc1)N1CCN(C2c3ccccc3-c3ccccc32)CC1 | inactive: -3.73% | –

Compound | activity, negative = inhibition | Potency
CCCC(=O)Nc1ccc2c(c1)nc(CCNC(=O)c1ccco1)n2C | inactive: -9.7% | –
COc1ccc(NC(=O)O/N=C/c2ccccc2Cl)cc1 | inactive: -2.18% | –
CCC1=NN(C(=O)Cc2ccc([N+](=O)[O-])cc2)C(O)(C(F)(F)F)C1 (stereo not given) | inactive: -5.5% | –
O=C(c1cccnc1)C1Cc2ccccc2C1=O (stereo not given) | inactive: 12% | –
NC(=O)c1ccc(NC(=O)COC(=O)/C=C/c2ccc3c(c2)OCO3)cc1 | inactive: -5.29% | –
Cc1nc(N)nc(Nc2ccc(C#N)cc2)c1Br | inactive: -2.94% | –
Cc1ccc(C(=O)/C=C/N(C)C)cn1 | inactive: -6.06% | –
CSc1ccc(NC(=O)Nc2cc(C)ccn2)cc1 | inactive: -4.53% | –
CCCN1CN=C(Nc2nc3ccccc3o2)NC1 | inactive: -3.71% | –
Cc1[nH]n(-c2ccccc2)c(=O)c1C=Nc1cccc(F)c1 | inactive: -6.77% | –
COC(=O)c1sccc1S(=O)(=O)Nc1ccc(Cl)cc1 | inactive: -4.96% | –
C/C(Cc1ccccc1)=N\NC(=O)CNC(=O)c1ccc(Cl)cc1Cl | inactive: -21.7% | –
CCC(=O)NC1(C(F)(F)F)C(=O)Nc2c1c(=O)[nH]c(=O)n2CC(C)C (stereo not given) | inactive: -5.35% | –
CNS(=O)(=O)c1cc(Cl)ccc1Sc1ccccc1C(=O)O | inactive: -0.435% | –
O=c1c(O)cccc2cc(O)c(O)c(O)c12 | – | active: 447 nM and active: 631 nM
O=[N+]([O-])c1ccc(-c2cn3c(n2)CCC3)cc1 | inactive: -6.5% | –
CN(C(=O)C(Cl)Cl)C1CC2C=CC1C2 (stereo not given) | inactive: 4.91% | –
Cc1cccc(C)c1N1C(=O)[C@@H]2C(c3ccccc3Cl)=NO[C@@H]2C1=O | inactive: -3.08% | –
Cn1c2ccccc2c(=O)c2c(=O)n(Cc3ccccc3)c(-c3ccc(F)cc3)nc21 | inactive: -3.32% | –
CCOc1ccccc1/C=C(/C#N)C(N)=O | inactive: 2.38% | –
COCc1cc(=O)n2[nH]c(C(C)(C)C)cc2n1 | inactive: 5.53% | –
CCc1c(C#N)sc(C(N)=O)c1CC | inactive: -3.2% | –
CCCOc1ccc(C(=O)NC(=S)NNC(=O)c2c(-c3ccccc3)noc2C)cc1 | inactive: -17% | –

Compound | activity, negative = inhibition | Potency
O=C(NN1C(=O)C2CCCCC2C1=O)c1ccco1 (stereo not given) | inactive: -3.88% | –
NC(=O)C1CCN(c2c([N+](=O)[O-])cc(C(F)(F)F)cc2[N+](=O)[O-])CC1 | inactive: -3.87% | –
O=C(NCCC(=O)N1CCOCCOCCOCCOCC1)OCc1ccccc1 | inactive: -6.47% | –
Cc1cc(=O)[nH]c2c1c(-c1ccccc1)nn2C | inactive: -3.66% | –
C=CCn1c(SCc2n[nH]c(=S)n2-c2ccccc2)nnc1-c1ccccc1 | inactive: -1.11% | –
Clc1ccc(-c2nnc(N3CCOCC3)o2)cc1 | inactive: -2.32% | –
Cc1ccc(C)c(-n2c(-c3ccc(Br)cc3)csc2=NC(=O)c2ccccc2F)c1 | inactive: 7.68% | –
Cn1nc(-c2ccccc2)cc1NS(=O)(=O)c1ccc(C#N)cc1 | inactive: -2% | –
CCCn1nnc(NC(=O)c2ccc3c(c2)OCO3)n1 | inactive: 4.12% | –
Cn1cccc1/C=C(\C#N)C(N)=S | inactive: -1.76% | –
C/C(Cc1ccccc1)=N\NC(=O)CNC(=O)COc1cccc(C)c1 | inactive: -6.91% | –
COC(=O)C1=C(N)Oc2c(oc(CO)cc2=O)C1c1ccc(F)cc1 (stereo not given) | inactive: -11.5% | –
O=C(O)c1cc(NN=C2CCN(Cc3ccccc3)CC2)ccc1Cl | inactive: -7.68% | –
Cc1ccc(C)c(C(=O)CCC(=O)O)c1 | inactive: -2.23% | –
c1ccc(-c2nnc(N3CCN(c4ccccc4)CC3)nc2-c2ccccc2)cc1 | inactive: -7.28% | –
O=C(Nc1ccc(Nc2ccncc2)cc1)c1ccc(Nc2ccnc3ccc([N+](=O)[O-])cc23)cc1 | inactive: 2.04% | –
Cc1ccccc1NC(=S)Nc1ccccn1 | inactive: 1.57% | –
CCc1c(-c2ccccc2)[n+](=O)c2c(n1[O-])CCC2 | inactive: -0.602% | –
CC(C)(C)c1cc(NCc2ccccn2)n2ncc(-c3ccc(Cl)cc3)c2n1 | inactive: -4.6% | –
CCOC(=O)C(=CNc1cccnc1Oc1ccc(C)c2c1CCC2)C(=O)OCC | inactive: 0.499% | –
CC(=O)NCC(=O)N[C@@H](CC(=O)OCc1ccccc1)C(=O)OCc1ccccc1 (Ac-Gly-Asp(OBn)-OBn) | inactive: 0.629% | –
CCC(=O)N1N=C(c2ccc(C)cc2)CC1c1ccco1 (stereo not given) | inactive: -5.68% | –
COc1ccc(-c2c[n+]3c(n2-c2ccc(C)cc2)CCCCC3)cc1 | inactive: 3.98% | –
